In all, about 33,000 sequences were measured (“E-score (-0.5 to 0.5)”: median about -0.011, highest 2% from about 0.28 on). The list shows a part of the results.

The assay concerns the target T1, Gcr1 (UniProt P07261).
T1 sequence: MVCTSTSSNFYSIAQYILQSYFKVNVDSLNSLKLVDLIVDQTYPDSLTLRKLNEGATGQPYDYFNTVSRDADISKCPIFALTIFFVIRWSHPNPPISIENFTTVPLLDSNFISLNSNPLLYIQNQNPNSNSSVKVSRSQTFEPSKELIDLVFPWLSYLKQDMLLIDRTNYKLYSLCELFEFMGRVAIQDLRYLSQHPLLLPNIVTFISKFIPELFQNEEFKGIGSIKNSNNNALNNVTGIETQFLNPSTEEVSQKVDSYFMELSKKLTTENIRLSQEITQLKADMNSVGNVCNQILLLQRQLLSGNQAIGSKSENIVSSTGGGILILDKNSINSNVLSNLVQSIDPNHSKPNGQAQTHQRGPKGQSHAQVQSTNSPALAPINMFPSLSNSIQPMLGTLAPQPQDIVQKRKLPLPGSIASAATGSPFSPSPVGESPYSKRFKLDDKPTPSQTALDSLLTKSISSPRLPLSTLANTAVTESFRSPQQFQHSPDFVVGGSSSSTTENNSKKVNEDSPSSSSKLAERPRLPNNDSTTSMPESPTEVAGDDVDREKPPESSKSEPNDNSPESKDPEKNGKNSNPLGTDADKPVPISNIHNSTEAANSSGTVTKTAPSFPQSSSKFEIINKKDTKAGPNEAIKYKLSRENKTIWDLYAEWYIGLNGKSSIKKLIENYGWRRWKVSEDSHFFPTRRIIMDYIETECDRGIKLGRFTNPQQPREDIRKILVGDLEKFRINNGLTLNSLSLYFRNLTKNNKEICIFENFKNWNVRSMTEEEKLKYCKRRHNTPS
The assay is described as follows: PBM E-score (8-mer binding enrichment) (E-score (-0.5 to 0.5)); higher = stronger / more preferred TF binding; most listed sequences are background and not binding sites. The note with it: protein concentration: 100 nM; construct: GST-full length. A digest of the protocol: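 Yeast transcription factors carrying a GST tag, as full-length proteins or DNA-binding domains, were produced by PURExpress in vitro transcription/translation. About 100-200 nM protein was applied to universal all-10-mer Agilent arrays, double-stranded by primer extension on fresh or once-stripped slides. Bound protein was detected with fluorescent anti-GST, and scans were normalised with masliner. The Universal PBM Analysis Suite gave each ungapped eight-base word, pooled with its reverse complement, an E-score, a modified Wilcoxon-Mann-Whitney statistic.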
Take GAAGCCTC: the “PBM E-score” value came out at 0.283.
For the sequence GCACCGTA, the “PBM E-score” value is 0.211.
The value for ACTCGGTG was -0.127.
For CCTACTGA, the “PBM E-score” value is -0.0359.
On to ACACGGAG, for which the “PBM E-score” value was -0.0209.
In the case of CTCTTTCC, the “PBM E-score” value was -0.057.
The value for CAGACAAC was 0.0134.
With ATGTAACC, the “PBM E-score” value is -0.0526.
Then GGTCCCGA, with 0.182; and CGCGCTAC, with 0.0811.
With GCCGGATA, the “PBM E-score” value is 0.0288.
As to GGGTTTCA, the “PBM E-score” value is -0.0174.
TGTCAACA: the “PBM E-score” value was -0.0103.
Consider AAACTTGG, for which the “PBM E-score” value was -0.0181.
ATAGCCTC: the “PBM E-score” value was -0.0329.
As for AAGACTCC, the “PBM E-score” value was 0.0934.
As to ACTAGCCA, the “PBM E-score” value was -0.285.
As for CGGGTGTC, the “PBM E-score” value was -0.116.
For the sequence AGCGCCTA, the “PBM E-score” value was found to be 0.164.
With CAGCTTTA, the “PBM E-score” value stood at 0.0159.
For the sequence CTATTACA, the “PBM E-score” value was determined as 0.148.
The value for AAGGGTCC was -0.0768; that for GTGGACAA was -0.0286.
In the case of CGAGTGTC, the “PBM E-score” value is -0.111.
Then GAACCTCA, with -0.00628; and ACTGGTGG, with 0.109; and GGGTCGGA, with -0.0653.
Turning to GAAGTACA, the “PBM E-score” value is -0.253.
Take AAAGGAGC: the “PBM E-score” value came to 0.126.
For CACGCTAC, the “PBM E-score” value worked out at 0.0035.
Regarding CGATCGCC, the “PBM E-score” value is -0.139.
Then CCAGCTAC, with 0.274; and AACGTCCC, with -0.159.
Then TAAGCCCA, with 0.105; and GATCCTTA, with 0.012.
Then GAACTCTC, with -0.213.
On to AATACGGT, for which the “PBM E-score” value was 0.0331.
For the sequence GGGTGGGA, the “PBM E-score” value came to 0.189.
The value for AGAAGGCG was 0.114.
CTGGATCC: the “PBM E-score” value was 0.346.
Then CTGTGACC, with -0.219; and GCGCCTAC, with 0.256; and CCGCCGTA, with 0.108.
The value for GAGGAACA was -0.193; that for CCCCCCAA was -0.0669; that for CCCGTGGA was -0.00158.
ATTACTTG: the “PBM E-score” value was -0.128.
On to ATGCGCTG, for which the “PBM E-score” value stood at 0.0449.
Then ACACGCAT, with 0.197; and CACCAAAC, with 0.0123.
With CGCCACGC, the “PBM E-score” value is -0.154.
In the case of CCTTGGTC, the “PBM E-score” value was -0.192.
CTATAGAG: the “PBM E-score” value came out at 0.096.
For AAAAGCTC, the “PBM E-score” value is -0.072.
In the case of CGTGTAAA, the “PBM E-score” value is 0.138.
On to TAGCAAAA, for which the “PBM E-score” value was found to be 0.019.
Turning to CCTAGACC, the “PBM E-score” value is -0.0274.
Turning to CTACCATA, the “PBM E-score” value is -0.0829.
The value for GTGACCAC was 0.0824; that for AACCAGGA was 0.0936.
On to ACCAGTTG, for which the “PBM E-score” value came out at 0.0739.
As for AATCTTTA, the “PBM E-score” value is -7e-05.
For CCCGGTAA, the “PBM E-score” value turned out to be 0.126.
With ACTACTAA, the “PBM E-score” value came to 0.115.
AACTCTAT: the “PBM E-score” value is -0.0936.
On to AAATTCGT, for which the “PBM E-score” value turned out to be 0.103.
The value for TCCCTGAA was 0.0528.
For CTAGTCTA, the “PBM E-score” value turned out to be 0.116.
The value for AAGTGTAT was -0.186.
CTCGATAC: the “PBM E-score” value was determined as 0.116.
Turning to CCTAGAAA, the “PBM E-score” value was 0.104.
Regarding AGCAAAAG, the “PBM E-score” value was -0.151.
On to ACTTGACT, for which the “PBM E-score” value was -0.0523.
As to CGCTCCTA, the “PBM E-score” value is 0.207.
Then ATCGCGTC, with 0.0433; and AGGTTTTA, with 0.0408; and CAATATGC, with 0.0154.
AGTGCACG: the “PBM E-score” value was -0.133.
On to CGCCGCAA, for which the “PBM E-score” value turned out to be 0.00387.
The value for CGATTGCC was -0.109; that for CAGGATGA was 0.0175.
Then AACGCTGA, with -0.0701; and TGTAAAAA, with 0.0954.
In the case of CGCAGGAA, the “PBM E-score” value came out at 0.0426.
TACTTAAA: the “PBM E-score” value was found to be 0.217.
Then CAGCGGCG, with 0.257.

The values are drawn from the supplement of paper PMC3334620.
